Laboratory results from the supplement of paper PMC7826260.
This is one part of the list. Viral Rep nickase domains cut single-stranded DNA in vitro at 3 µM enzyme and 37 °C for 1 h; the strands have 90 letters, of which the middle is given. Uncut reads are compared with the no-enzyme pool on a log2 scale; the lower, the more was cut; hits are not called. Counts are relative to all reads, so uncut sequences can rise above 0 when many others are cut.

Assays:
Assay in all cases: uncleaved DNA left, log2 of reads against the no-enzyme library (log2 ratio); higher = less cleavage (more negative = more Rep cleavage of the k-mer); sequences stand for … in CTCGTCCG…ACCGGAGA
[1] = test system: T1, Rep nickase domain of Muscovy duck circovirus
T1 sequence (Rep 1-111, printed without the tag): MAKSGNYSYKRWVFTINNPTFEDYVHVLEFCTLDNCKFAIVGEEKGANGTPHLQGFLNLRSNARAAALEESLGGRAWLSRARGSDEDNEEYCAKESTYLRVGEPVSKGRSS
Description: (§1)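 A pool of 90-nt single-stranded DNAs with seven random bases just before the constant AC of the nick site (name = the seven bases) was cut by 3 µM recombinant His6-SUMO-tagged Rep nickase domain (300 nM DNA, 50 mM HEPES pH 8.0, 50 mM NaCl, 1 mM MnCl2, 1 h, 37 °C, three replicates). Uncut DNA was amplified and sequenced.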

[2] = test system: T2, Rep nickase domain of banana bunchy top virus
T2 sequence (Rep 1-94, printed without the tag): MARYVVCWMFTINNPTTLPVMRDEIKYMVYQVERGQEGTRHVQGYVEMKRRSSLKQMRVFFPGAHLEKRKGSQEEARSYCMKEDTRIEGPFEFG
Description: as §1

[3] = test system: T3, Rep nickase domain of cabbage leaf curl virus
T3 sequence (Rep 1-116, printed without the tag): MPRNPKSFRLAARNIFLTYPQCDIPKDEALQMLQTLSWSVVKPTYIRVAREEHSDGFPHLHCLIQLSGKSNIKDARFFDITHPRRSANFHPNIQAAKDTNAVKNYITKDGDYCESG
Description: as §1

[4] = test system: T4, Rep nickase domain of chickpea chlorotic dwarf virus
T4 sequence (Rep 1-124, printed without the tag): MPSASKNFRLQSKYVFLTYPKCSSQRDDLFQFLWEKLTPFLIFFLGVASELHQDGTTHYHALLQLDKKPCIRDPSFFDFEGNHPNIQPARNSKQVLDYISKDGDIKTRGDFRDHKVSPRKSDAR
Description: as §1

[5] = test system: T5, Rep nickase domain of faba bean necrotic yellows virus
T5 sequence (Rep 1-98, printed without the tag): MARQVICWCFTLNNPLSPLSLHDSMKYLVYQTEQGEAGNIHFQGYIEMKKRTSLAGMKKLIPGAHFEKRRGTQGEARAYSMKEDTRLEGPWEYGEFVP
Description: as §1

[6] = test system: T6, Rep nickase domain of maize striate mosaic virus
T6 sequence (Rep 1-117, printed without the tag): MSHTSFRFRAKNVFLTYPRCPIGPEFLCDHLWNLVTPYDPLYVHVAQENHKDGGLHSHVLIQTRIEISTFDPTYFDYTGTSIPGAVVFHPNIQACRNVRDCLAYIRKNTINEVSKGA
Description: as §1

[7] = test system: T7, Rep nickase domain of porcine circovirus 2
T7 sequence (Rep 2-116, printed without the tag): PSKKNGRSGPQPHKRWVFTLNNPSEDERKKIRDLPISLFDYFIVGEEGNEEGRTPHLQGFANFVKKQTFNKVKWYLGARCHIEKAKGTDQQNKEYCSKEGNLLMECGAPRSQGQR
Description: as §1

[8] = test system: T8, Rep nickase domain of tomato golden mosaic virus
T8 sequence (Rep 1-124, printed without the tag): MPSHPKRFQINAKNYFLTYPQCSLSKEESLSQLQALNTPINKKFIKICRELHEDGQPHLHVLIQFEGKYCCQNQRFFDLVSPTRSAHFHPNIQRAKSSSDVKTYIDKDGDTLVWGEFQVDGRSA
Description: as §1

[9] = test system: T9, Rep nickase domain of tomato yellow leaf curl virus
T9 sequence (Rep 1-136, printed without the tag): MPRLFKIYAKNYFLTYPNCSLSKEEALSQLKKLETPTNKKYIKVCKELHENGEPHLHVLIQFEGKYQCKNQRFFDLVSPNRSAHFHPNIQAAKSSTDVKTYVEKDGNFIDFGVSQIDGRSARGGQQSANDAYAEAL
Description: as §1

[10] = test system: T10, Rep nickase domain of wheat dwarf virus
T10 sequence (Rep 1-137, printed without the tag): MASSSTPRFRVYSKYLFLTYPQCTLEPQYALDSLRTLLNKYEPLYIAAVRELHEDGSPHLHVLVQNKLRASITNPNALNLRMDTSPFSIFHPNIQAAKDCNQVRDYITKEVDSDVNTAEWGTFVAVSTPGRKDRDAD
Description: as §1

Row | Sequence | uncleaved DNA left (log2) [1] | uncleaved DNA left (log2) [2] | uncleaved DNA left (log2) [3] | uncleaved DNA left (log2) [4] | uncleaved DNA left (log2) [5] | uncleaved DNA left (log2) [6] | uncleaved DNA left (log2) [7] | uncleaved DNA left (log2) [8] | uncleaved DNA left (log2) [9] | uncleaved DNA left (log2) [10]
1 | AGTCTCG | 0.072 | -0.0775 | -0.777 | -0.819 | 0.0484 | -0.905 | 0.0882 | 0.0155 | 0.0045 | -0.027
2 | TTGACTC | 0.0204 | 0.0201 | 0.12 | 0.318 | -0.0316 | 0.37 | 0.0539 | -0.15 | -0.0237 | 0.117
3 | GGATAAG | 0.116 | 0.113 | -0.127 | 0.215 | 0.0152 | -0.302 | 0.265 | 0.0525 | 0.0858 | 0.114
4 | AATTCGC | -0.00662 | -0.115 | -0.681 | -0.692 | 0.0588 | -1.19 | 0.0653 | -0.0951 | 0.0339 | -0.0234
5 | TCATAGC | -0.0724 | -0.134 | -0.734 | -0.66 | -0.112 | -1.37 | -0.0396 | -0.294 | -0.0776 | -0.117
6 | TGGGTGA | -0.0797 | -0.0978 | 0.414 | 0.962 | 0.00716 | 1.19 | 0.0522 | -0.087 | 0.0055 | 0.0126
7 | CGTGAAT | 0.0653 | 0.0784 | 0.169 | 0.359 | 0.0639 | 0.825 | -0.24 | 0.0851 | 0.059 | 0.0448
8 | TGTATAT | 0.124 | 0.149 | 0.306 | 0.378 | 0.106 | 0.757 | -0.717 | -0.043 | 0.12 | 0.0725
9 | GTGGGGC | 0.0684 | 0.0365 | 0.592 | 1.34 | 0.0387 | 1.93 | 0.168 | 0.0783 | 0.0192 | 0.13
10 | ACTACCG | -0.0617 | 0.0999 | -0.866 | -0.738 | -0.0539 | -0.912 | 0.0783 | 0.00259 | -0.00589 | -0.0594
11 | CGTGCCT | -0.103 | -0.0675 | -0.154 | -0.748 | -0.146 | -0.188 | -0.288 | -0.09 | -0.032 | -0.108
12 | CATAGAT | 0.118 | 0.0098 | 0.158 | 0.0618 | 0.0658 | 0.565 | 0.00522 | 0.159 | 0.00843 | 0.0367
13 | CCCAGAT | 0.0714 | 0.0835 | 0.0374 | 0.857 | -0.0461 | 1.21 | -0.102 | 0.0119 | -0.109 | 0.0387
14 | GTGGACG | -0.114 | 0.0349 | 0.668 | 1.7 | -0.0939 | 1.92 | 0.0997 | -0.0183 | 0.0207 | 0.107
15 | TAGATTT | -0.119 | -3.48 | -2.95 | -3.04 | -3.11 | -0.902 | -3.8 | -0.92 | -0.025 | -0.679
